Data as given in PubChem BioAssay AID1671194 (National Center for Advancing Translational Sciences (NCATS), 2021).
Out of some 140,000 compounds screened, about 240 (0.17%) were called active. Inconclusive results, whose numbers are uncertain, are shown with a selection of clear calls. Calls follow the shape of the dose curve; as a rule, active = well fitted inhibition curve with a large enough effect; inconclusive = small, poorly fitted or top-dose-only effect; inactive = no such curve, though single readings can be large or run the other way. Potencies beside an inconclusive call are fits to weak or partial responses and may not hold up.

Assay: Primary qHTS assay for inhibitors of alpha-synuclein gene (SNCA) expression; also: nearly all actives have a fitted effect of over 45% in size;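 as to activity change, negative = inhibition: plate controls were DMSO cells for no effect and cell-free wells for full effect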
Conditions: HEK-293 SNCA-luciferase knock-in, luminescence, 24 h; activity change, negative = inhibition: at 57.2 µM (top of the series) unless noted
Potency is read from the fitted curve at half-maximal effect; tags tell the direction and shape of the fitted curve.

Structure (SMILES)	activity change, negative = inhibition	Potency
CC1=C[C@@H](CNS(=O)(=O)c2ccccc2)[C@H](C(C)C)C[C@H]1CC(=O)NCc1ccccn1	inactive: 12.1%	
Cc1ccc(OCc2nc(C3CCN(S(=O)(=O)Cc4ccccc4F)C3)no2)cc1 (stereo not drawn)		inconclusive: 31.6 µM [inhibitor, single point]
N#Cc1cccc(-c2cn3c(n2)N(C(=O)COc2ccccc2)CCC3)c1	inactive: 0.625%	
CCCCN(CC)C(=O)C1CCC(CNS(=O)(=O)c2cccc3nsnc23)CC1 (stereo not drawn)	inactive: -25.2%	
CSc1ccc(/C=C/c2nc3ccccc3n2S(=O)(=O)c2ccc(F)c(C)c2)cc1	inactive: -84.3%	
CCOC(=O)c1ccc(CN(Cc2ccc(F)cc2)S(=O)(=O)c2cc(C(=O)Nc3ccccc3CC)ccc2F)cc1		inconclusive: 35.5 µM [inhibitor, partial curve, poor fit]
Cc1cccc(C(=O)N2CC[C@H](n3c(=O)n(C)c4cccnc43)C2)c1	inactive: -9.7%	
CCOC(=O)N1CCN(S(=O)(=O)N2CCCC(C(=O)NCc3ccccc3OC)C2)CC1 (stereo not drawn)		inconclusive: 14.1 µM [inhibitor, partial curve, poor fit]
Fc1ccc(-c2cnc([C@@H]3COCCN3Cc3c[nH]c4ccccc34)[nH]2)c(F)c1		inconclusive: 56.2 µM [inhibitor, single point]
O=C(NCC(F)(F)F)c1cc(C2CC2)nc2onc(C3CCNC3)c12 (stereo not drawn)		inconclusive: 3.55 µM [inhibitor, single point]
COc1ccc(NC(=O)C2CCCN(S(=O)(=O)c3ccc4[nH]c(=O)ccc4c3)C2)cc1OC (stereo not drawn)	inactive: 19.3%	
CCc1ccc(S(=O)(=O)c2nnn3c2nc(N2CCCCC2)c2ccccc23)cc1		inconclusive: 10 µM [inhibitor, partial curve, poor fit]
Cc1ccc(CNC(=O)c2cc(Sc3ccc(F)cc3F)nc3ccccc23)cc1		inconclusive: 3.16 µM [inhibitor, partial curve, poor fit]
O=C(NC1CCCC1)c1nc2cccnc2n(CCc2ccccc2)c1=O		inconclusive: 8.91 µM [inhibitor, single point]
FC(F)(F)c1ccc(Nc2nc3ccc(Oc4ccnc(-c5ncc(C(F)(F)F)[nH]5)c4)cc3[nH]2)cc1		inconclusive: 42.9 µM [inhibitor, single point]
Cc1ccc(CN[C@@H]2CO[C@H](CNC(=O)c3ccccc3)[C@H]2O)cc1	inactive: 3.43% [at 87.6 µM]	
Cc1nc(N2CCN(C(=O)c3ccc(C#N)cc3)CC2)cc(C(F)(F)F)n1	inactive: 13.8%	
Cc1nn(-c2ccc(F)cc2)c(Oc2cccc(F)c2)c1CCC(=O)N(C)C(C)C		inconclusive: 39.8 µM [inhibitor, single point]
